Measured values as given in PMC4336329 (PLoS ONE, 2015).
Hit rate of the full screen: of about 310,000 compounds, about 14,000 (4.5%) showed an effect of 50% or more. Effects have a minus sign here. The list shows a part of the results.

target: human ether-à-go-go-related gene (hERG) potassium channel (human, UniProt Q12809); test: primary screen, population patch clamp on CHO cells stably expressing hERG
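Also: peak tail current of the secondary pulse compared with the same well before compound.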

human ether-à-go-go-related gene (hERG) potassium channel, sequence (Q12809 whole entry, looked up): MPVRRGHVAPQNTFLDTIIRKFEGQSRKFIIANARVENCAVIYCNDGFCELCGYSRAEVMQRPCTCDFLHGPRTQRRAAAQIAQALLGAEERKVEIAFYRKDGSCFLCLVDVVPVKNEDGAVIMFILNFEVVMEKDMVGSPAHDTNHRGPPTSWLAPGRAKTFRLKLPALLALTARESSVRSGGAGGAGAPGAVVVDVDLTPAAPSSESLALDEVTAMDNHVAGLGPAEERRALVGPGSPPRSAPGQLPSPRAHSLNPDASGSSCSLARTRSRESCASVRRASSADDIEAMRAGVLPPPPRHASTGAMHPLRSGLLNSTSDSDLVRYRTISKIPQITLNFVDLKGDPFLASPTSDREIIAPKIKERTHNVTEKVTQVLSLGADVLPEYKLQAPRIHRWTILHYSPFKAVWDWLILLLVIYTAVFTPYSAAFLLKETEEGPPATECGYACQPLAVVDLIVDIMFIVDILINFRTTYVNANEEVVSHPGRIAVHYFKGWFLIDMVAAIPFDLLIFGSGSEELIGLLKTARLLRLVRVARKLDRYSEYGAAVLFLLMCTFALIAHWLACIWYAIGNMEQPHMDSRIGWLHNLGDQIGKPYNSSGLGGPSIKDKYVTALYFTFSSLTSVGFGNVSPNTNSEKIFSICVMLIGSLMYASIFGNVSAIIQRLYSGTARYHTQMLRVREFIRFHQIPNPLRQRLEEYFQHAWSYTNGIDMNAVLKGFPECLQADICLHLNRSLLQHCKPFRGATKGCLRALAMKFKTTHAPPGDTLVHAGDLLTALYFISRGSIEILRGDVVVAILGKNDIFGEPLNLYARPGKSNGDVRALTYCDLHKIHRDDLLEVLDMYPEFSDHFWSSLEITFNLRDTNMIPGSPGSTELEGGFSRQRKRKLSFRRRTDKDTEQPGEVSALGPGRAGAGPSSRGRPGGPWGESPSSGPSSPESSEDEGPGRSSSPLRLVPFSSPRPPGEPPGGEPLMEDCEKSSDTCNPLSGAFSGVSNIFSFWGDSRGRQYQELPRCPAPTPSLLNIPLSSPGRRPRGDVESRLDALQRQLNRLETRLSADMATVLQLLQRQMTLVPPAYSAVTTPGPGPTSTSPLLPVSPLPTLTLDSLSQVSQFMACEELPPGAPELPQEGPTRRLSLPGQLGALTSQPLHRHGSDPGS

| SMILES | hERG current change (%, negative = inhibition) at 10uM |
| --- | --- |
| N#C/C(=C\c1c[nH]c2ccccc12)C(=O)NC1CC1 | 11.1% |
| N#Cc1ccc(S(=O)(=O)Nc2ccc3ccccc3n2)cc1 | -15.5% |
| O=C(O)c1ccc(NC(=S)NC(=O)C(c2ccccc2)c2ccccc2)cc1 | -6.52% |
| O=C(NC1CCCC1)C(c1ccc(F)cc1)N(Cc1ccc(F)cc1)C(=O)c1ccn[nH]1 (stereo not shown) | -20.5% |
| O=C(NC(=S)Nc1ccc(CN2CCOCC2)cc1)c1ccc([N+](=O)[O-])cc1Cl | 18.8% |
| COc1ccc(CNCc2ccccc2[N+](=O)[O-])cc1OC.O=C(O)C(=O)O | -5.58% |
| CCOC(=O)c1cnc(-n2nc(C)cc2C)nc1Nc1cccc(C(C)=O)c1 | -8.14% |
| Cc1ccc(CCNC(=O)CN2C(=O)COc3ccc(S(=O)(=O)N4CCCCC4)cc32)cc1 | -13.7% |
| CC(C)(C)C1CCC(=NNC(=S)Nc2cccnc2)CC1 (stereo not shown) | 10% |
| Cc1cc(C)n(Cc2ccc(C(=O)NCCC3=CCCCC3)o2)n1 | -15.8% |
| CCOC(=O)C(C)Oc1cc(Cl)c(C=O)cc1OC (stereo not shown) | 4.6% |
| CCC1(C)Cc2c(sc3c2c(=O)n(C)c2nnc(SCC(=O)c4ccccc4)n32)CO1 (stereo not shown) | -6.48% |
| Cl.O=C(CN1CCCC1)Nc1ccc2c(c1)CCC2 | -1.69% |
| CCN(CC)C(=O)c1cn(CCC#N)nc1-c1ccc(F)cc1 | -9.85% |
| O=C(CSc1ccc2nnc(-c3cccnc3)n2n1)NCc1ccco1 | -44.3% |
| CC(=O)Nc1ccc(NC(=O)CSC2=NS(=O)(=O)c3ccccc3N2)cc1 | 5.2% |
| COCCNC(=O)C1Nc2ccc(C(F)(F)F)cc2C2C=CCC12 (stereo not shown) | -1.62% |
| CC1CCCN(S(=O)(=O)c2cccc([N+](=O)[O-])c2)C1 (stereo not shown) | 0.457% |
| FCCCOc1ccc(/C=N/OCc2c(Cl)cccc2Cl)cc1 | 0.839% |
| CCCCOc1ccc(Cn2c(=O)oc3ccccc32)cc1 | 16.8% |
| CCCCCn1c(=O)[nH]c2cc(C(=O)NCc3ccco3)ccc2c1=O | 7.43% |
| COc1ccc(CN2C(=O)CCC2(C)C(=O)NC2CCCC2)c(OC)c1 (stereo not shown) | 0.268% |
| Cc1ccccc1NS(=O)(=O)c1cccc(-c2nnc(-c3ccccc3)o2)c1 | -17% |
| CCOC(=O)CCc1c(C)c2ccc(OC(C)C(=O)OCC)c(C)c2oc1=O (stereo not shown) | -49.3% |
| CC(C)c1ccc(N(C(=O)C(F)(F)F)C(C(=O)NC2CCCCC2)c2ccncc2)cc1 (stereo not shown) | -6.83% |
| CCOC(=O)c1ccc(NC=C2C(=O)OC3(CCCCC3)OC2=O)cc1 | 14.4% |
| COc1cccc(Nc2nnc(SCC(=O)N3CC(=O)Nc4ccccc43)s2)c1 | 4.21% |
| C=CCNC(=S)NNc1nc2c(c(=O)[nH]1)C1(CCCC1)Cc1ccccc1-2 | 20.8% |

| SMILES | hERG current change (%, negative = inhibition) at 10uM |
| --- | --- |
| CCOC(=O)C(C)n1cnc2c(nnn2-c2ccccc2)c1=O (stereo not shown) | -19.6% |
| Cl.N=C(c1cccc([N+](=O)[O-])c1)N1CCCCCC1 | 2.26% |
| C#C[C@]1(O)CC[C@H]2[C@@H]3CCC4=CC(=O)CC[C@@H]4[C@H]3CC[C@@]21C | 19.2% |
| Cc1ccc(S(=O)(=O)NCCC(=O)N2CCC(Cc3ccccc3)CC2)cc1 | -34% |
| O=C(COc1ccccc1[N+](=O)[O-])Nc1ccc2c(c1)OCO2 | 12.8% |
| CCOC(=O)C1(Cc2ccccc2)CCCN(Cc2cccc(C(C)=O)c2)C1 (stereo not shown) | -2.24% |
| Cc1nn(CC(=O)NCCc2ccccc2)c(=O)c2ccccc12 | -8.9% |
| CCN(CC)C(=O)CSc1ncnc2sc(-c3ccccc3)cc12 | -20.6% |
| O=C(NC1CCCC1)C1CCC(=O)N1C1CCCCC1 (stereo not shown) | -2.9% |
| Cc1ccccc1C(=O)Nc1ccnn1C1CCN(CC2CC=CCC2)CC1 (stereo not shown) | -72.6% |
| COc1cc2[nH]c(=S)n(CCCN3CCOCC3)c(=O)c2cc1OC | 3.62% |
| O=C(NCC(=O)N(CC1CCCO1)C(C(=O)NC1CCCCC1)c1ccccc1)c1cccs1 (stereo not shown) | -7.17% |
| O=C(CSc1ccc(Cl)cc1)Nc1ccc(N2CCN(c3ccccc3)CC2)c(F)c1 | 24.9% |
| CC(=O)OC1C(N2CCCCC2)c2c(ccc(/C=C/C(=O)N3CCCCC3)c2O)OC1(C)C (stereo not shown) | 7.65% |
| Cc1ccc(C)c(NC(=O)Cn2c([N+](=O)[O-])cnc2C)c1 | 23.5% |
| CCCn1c(=O)n(C)c(=O)c2c(SCC(=O)NCc3ccco3)nc(C3CC3)nc21 | -7.62% |
| O=C(NCCN1CCCC1)C1CCN(S(=O)(=O)N2CCC3(CC2)OCCO3)CC1 | 20.5% |
| CCOC(=O)NC(=O)CSc1nc2ccc(OCC)cc2[nH]1 | 4.03% |
| Cc1nn(-c2ccc(Cl)cc2)c(=O)c2c(C)noc12 | 0.0355% |
| CCC(C)(C)NC(=O)C1CCC(CNS(=O)(=O)c2cccc3nsnc23)CC1 (stereo not shown) | -9.15% |
| COCC(=O)Nc1cccc(-c2ccc3nncn3n2)c1 | 9.97% |
| O=C(CN1C(=O)C2CCCCC2C1=O)OCC(=O)c1ccc(F)cc1 (stereo not shown) | 1.85% |
| C/C(=N\Nc1cccc(C(=O)O)c1)c1ccc2c(c1)Nc1ccccc1S2 | 8.98% |
| CC(NC(=O)C12CC3CC(CC(C3)C1)C2)C(=O)N/N=C/C1=C(N2CCOCC2)C(=C\c2ccccc2)/CC1 (stereo not shown) | -28.8% |
| O=C(CS(=O)(=O)Cc1ccccc1)Nc1nnc(C(F)(F)F)s1 | 25% |
| CC1CN(C)C(C)c2c1oc1ccc(N)cc21.O=C(O)/C=C/C(=O)O (stereo not shown) | -28.4% |
| Cc1ccc(N2C(=O)NC(=O)/C(=C\C=C\c3ccco3)C2=O)cc1 | 25% |
